# Results are given in words; binding and its absence hold for the method and conditions named. In cells and extracts the contact can be indirect. Some binding calls cover weakened binding; strength is not graded here. Tags and fused reporters may be left off the sequences shown.
# T1: Atg9-PA (S. cerevisiae) (UniProt Q12142)
# T1 sequence: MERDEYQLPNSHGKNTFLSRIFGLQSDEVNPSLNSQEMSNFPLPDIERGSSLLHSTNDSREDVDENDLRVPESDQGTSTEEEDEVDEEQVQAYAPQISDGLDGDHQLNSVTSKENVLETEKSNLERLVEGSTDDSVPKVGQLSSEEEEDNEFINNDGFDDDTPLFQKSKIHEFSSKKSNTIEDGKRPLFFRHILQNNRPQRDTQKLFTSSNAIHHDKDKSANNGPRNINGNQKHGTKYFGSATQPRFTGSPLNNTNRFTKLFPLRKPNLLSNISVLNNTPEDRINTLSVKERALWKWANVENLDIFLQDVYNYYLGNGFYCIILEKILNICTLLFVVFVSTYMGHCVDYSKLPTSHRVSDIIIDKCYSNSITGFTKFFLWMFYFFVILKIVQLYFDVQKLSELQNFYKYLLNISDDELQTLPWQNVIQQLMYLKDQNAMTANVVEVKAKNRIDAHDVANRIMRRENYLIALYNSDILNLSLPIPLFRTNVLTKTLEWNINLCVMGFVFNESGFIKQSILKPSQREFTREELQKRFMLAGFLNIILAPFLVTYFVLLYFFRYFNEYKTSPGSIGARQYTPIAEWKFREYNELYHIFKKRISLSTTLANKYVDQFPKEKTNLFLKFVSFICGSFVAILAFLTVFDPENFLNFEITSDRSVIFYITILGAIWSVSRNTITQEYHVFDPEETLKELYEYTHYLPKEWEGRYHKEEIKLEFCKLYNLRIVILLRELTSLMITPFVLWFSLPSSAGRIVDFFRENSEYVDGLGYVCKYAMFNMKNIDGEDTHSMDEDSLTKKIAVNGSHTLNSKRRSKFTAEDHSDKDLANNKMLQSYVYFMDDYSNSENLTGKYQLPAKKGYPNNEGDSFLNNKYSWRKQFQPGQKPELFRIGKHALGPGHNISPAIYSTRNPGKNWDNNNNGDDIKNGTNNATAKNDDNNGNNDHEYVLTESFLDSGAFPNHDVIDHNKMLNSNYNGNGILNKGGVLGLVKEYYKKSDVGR
# Target: T1, Atg9-PA (S. cerevisiae)
# Experiment: co-IP; overexpressed GFP-Atg11 co-precipitated by overexpressed Atg9-PA from yeast in growing conditions (SMD -ura -trp, log phase); washes at 4°C; blots probed with anti-GFP
row,binding,Binder
1,binds,"GFP-Atg11 YDL (protein, UniProt Q12527 1-1178) MADADEYSTAPTQQEITPLQTTATIINAISGECITTNVDFFVSLDKFKQFIARKWKIPPDQLLILLPYGNKLKPSMFKELLINRSFTLNDFYVYDRRLFSLVSKPTPTNLLTSKDSNPMNSPNSNDLTETLEYLIKNSHISQYQGSDTIMIKPMPSPLEDADVDLSRLNYHSVTSLLTTNLGWLSALEIDVHYFKSLIPDIIAHIKRIFDGLTVCSQYLKLYCFDVESLYNSNVQFLNQLVDNGMTSKWEKCFNDTLSKLTALEGDSLQKFINIESLLENEKSVKILNHSINGKLNKIKREIDENASFRDIITVNIDRLRQMFTPNESKFELEDQMAESFEVLVSEMRTRSRNVLDKEEEEFNSQEFLKSMNVMLEKDKKESVKTLFTISQALYSQIGELIDLKKSLQKHAVAILGNIAFTQMEILGIKRLLLNECNKDLELYKKYEVEFAQVEDLPLIYGLYLIEKARRLSWFQQILSFISNFNQDLELFKQNELRTRNKWVKNFGSIATVFCEAALSSSDFKRLNEYHSHTSPPNEDEEDENENSIANYRQDLVKVSQAIDNYMTQIKETDVSEPIIDLLSKTLFETKRFHIIYSNFKNNNNNSSNGNSISPEGSIALKSDDVVKGYKTRIKKLESLLHEFQYSDIGHWPQGVLNTHLKPFRGSATSINKKKFLGASVLLEPANISEVNIDSVSQANNHQIQELESNVDDLLHQLQLLKEENNRKSMQISEMGKKISDLEVEKTAYRETLTNLNQELARLTNEEQSHRTEIFTLNASFKKQLNDIISQDNEKIEKLTGDYDDVSKSRERLQMDLDESNKKHEQEVNLLKADIERLGKQIVTSEKSYAETNSSSMEKGEKFETIPLAEDPGRENQISAYTQTLQDRIFDIISTNIFILENIGLLLTFDNNNNIQIRRVKGLKKGTAQSNILDESTQMLDAHDNSLIKSPVFQKLKDEYELIKSVANGSEKDTQQSIFLGNITQLYDNKLYEVAVIRRFKDIETLAKKLTKENKIKRTLLERFQREKVTLRNFQIGDLALFLPTRENVNSVGSMSSSTSSLSSSFSSVDLSTPPPLDAMSIQSSPSVIHSNVINQASISGRDKNKLMRPWAAFTAFEESTRYFLKDEKGLTKGKEWFVGRIVTLEHFVADSPSNNPFRLPKGSVWFQVTAVVVSYQGV"
2,binds,"GFP-Atg11 DLL (protein, UniProt Q12527 1-1178) MADADEYSTAPTQQEITPLQTTATIINAISGECITTNVDFFVSLDKFKQFIARKWKIPPDQLLILLPYGNKLKPSMFKELLINRSFTLNDFYVYDRRLFSLVSKPTPTNLLTSKDSNPMNSPNSNDLTETLEYLIKNSHISQYQGSDTIMIKPMPSPLEDADVDLSRLNYHSVTSLLTTNLGWLSALEIDVHYFKSLIPDIIAHIKRIFDGLTVCSQYLKLYCFDVESLYNSNVQFLNQLVDNGMTSKWEKCFNDTLSKLTALEGDSLQKFINIESLLENEKSVKILNHSINGKLNKIKREIDENASFRDIITVNIDRLRQMFTPNESKFELEDQMAESFEVLVSEMRTRSRNVLDKEEEEFNSQEFLKSMNVMLEKDKKESVKTLFTISQALYSQIGELIDLKKSLQKHAVAILGNIAFTQMEILGIKRLLLNECNKDLELYKKYEVEFAQVEDLPLIYGLYLIEKYRRLSWFQQILSFISNFNQDLELFKQNELRTRNKWVKNFGSIATVFCEAALSSSDFKRANEYHSHTSPPNEDEEDENENSIANYRQDLVKVSQAIDNYMTQIKETDVSEPIIDLLSKTLFETKRFHIIYSNFKNNNNNSSNGNSISPEGSIALKSDDVVKGYKTRIKKLESLLHEFQYSDIGHWPQGVLNTHLKPFRGSATSINKKKFLGASVLLEPANISEVNIDSVSQANNHQIQELESNVDDLLHQLQLLKEENNRKSMQISEMGKKISDLEVEKTAYRETLTNLNQELARLTNEEQSHRTEIFTLNASFKKQLNDIISQDNEKIEKLTGDYDDVSKSRERLQMDLDESNKKHEQEVNLLKADIERLGKQIVTSEKSYAETNSSSMEKGEKFETIPLAEDPGRENQISAYTQTLQDRIFDIISTNIFILENIGLLLTFDNNNNIQIRRVKGLKKGTAQSNILDESTQMLDAHDNSLIKSPVFQKLKDEYELIKSVANGSEKDTQQSIFLGNITQLYDNKLYEVAVIRRFKDIETLAKKLTKENKIKRTLLERFQREKVTLRNFQIGDLALFLPTRENVNSVGSMSSSTSSLSSSFSSVDLSTPPPLDAMSIQSSPSVIHSNVINQASISGRDKNKLMRPWAAFTAFEESTRYFLKDEKGLTKGKEWFVGRIVTLEHFVADSPSNNPFRLPKGSVWFQVTAVVVSYQGV"
3,no binding,"GFP-atg11ΔCC2 (protein, UniProt Q12527) MADADEYSTAPTQQEITPLQTTATIINAISGECITTNVDFFVSLDKFKQFIARKWKIPPDQLLILLPYGNKLKPSMFKELLINRSFTLNDFYVYDRRLFSLVSKPTPTNLLTSKDSNPMNSPNSNDLTETLEYLIKNSHISQYQGSDTIMIKPMPSPLEDADVDLSRLNYHSVTSLLTTNLGWLSALEIDVHYFKSLIPDIIAHIKRIFDGLTVCSQYLKLYCFDVESLYNSNVQFLNQLVDNGMTSKWEKCFNDTLSKLTALEGDSLQKFINIESLLENEKSVKILNHSINGKLNKIKREIDENASFRDIITVNIDRLRQMFTPNESKFELEDQMAESFEVLVSEMRTRSRNVLDKEEEEFNSQEFLKSMNVMLEKDKKESVKTLFTISQALYSQIGELIDLKKSLQKHAVAILGNIAFTQMEILGIKRLLLNECNKDLELYKKYEVEFAQVEDLPLIYGLYLIEKYRRLSWFQQILSFISNFNQDLELFKQNELRTRNKWVKNFGSIATVFCEDLLSSSDFKRLNEYHSHTSPPIIDLLSKTLFETKRFHIIYSNFKNNNNNSSNGNSISPEGSIALKSDDVVKGYKTRIKKLESLLHEFQYSDIGHWPQGVLNTHLKPFRGSATSINKKKFLGASVLLEPANISEVNIDSVSQANNHQIQELESNVDDLLHQLQLLKEENNRKSMQISEMGKKISDLEVEKTAYRETLTNLNQELARLTNEEQSHRTEIFTLNASFKKQLNDIISQDNEKIEKLTGDYDDVSKSRERLQMDLDESNKKHEQEVNLLKADIERLGKQIVTSEKSYAETNSSSMEKGEKFETIPLAEDPGRENQISAYTQTLQDRIFDIISTNIFILENIGLLLTFDNNNNIQIRRVKGLKKGTAQSNILDESTQMLDAHDNSLIKSPVFQKLKDEYELIKSVANGSEKDTQQSIFLGNITQLYDNKLYEVAVIRRFKDIETLAKKLTKENKIKRTLLERFQREKVTLRNFQIGDLALFLPTRENVNSVGSMSSSTSSLSSSFSSVDLSTPPPLDAMSIQSSPSVIHSNVINQASISGRDKNKLMRPWAAFTAFEESTRYFLKDEKGLTKGKEWFVGRIVTLEHFVADSPSNNPFRLPKGSVWFQVTAVVVSYQGV"
4,binds,"GFP-Atg11 IA3 (protein, UniProt Q12527 1-575; P01094 2-53; Q12527 628-1178) MADADEYSTAPTQQEITPLQTTATIINAISGECITTNVDFFVSLDKFKQFIARKWKIPPDQLLILLPYGNKLKPSMFKELLINRSFTLNDFYVYDRRLFSLVSKPTPTNLLTSKDSNPMNSPNSNDLTETLEYLIKNSHISQYQGSDTIMIKPMPSPLEDADVDLSRLNYHSVTSLLTTNLGWLSALEIDVHYFKSLIPDIIAHIKRIFDGLTVCSQYLKLYCFDVESLYNSNVQFLNQLVDNGMTSKWEKCFNDTLSKLTALEGDSLQKFINIESLLENEKSVKILNHSINGKLNKIKREIDENASFRDIITVNIDRLRQMFTPNESKFELEDQMAESFEVLVSEMRTRSRNVLDKEEEEFNSQEFLKSMNVMLEKDKKESVKTLFTISQALYSQIGELIDLKKSLQKHAVAILGNIAFTQMEILGIKRLLLNECNKDLELYKKYEVEFAQVEDLPLIYGLYLIEKYRRLSWFQQILSFISNFNQDLELFKQNELRTRNKWVKNFGSIATVFCEDLLSSSDFKRLNEYHSHTSPPNEDEEDENENSIANYRQDLVKVSQAIDNYMTQIKETDVSNTDQQKVSEIFQSSKEKLQGDAKVVSDAFKKMASQDKDGKTTDADESEKHNYGYKTRIKKLESLLHEFQYSDIGHWPQGVLNTHLKPFRGSATSINKKKFLGASVLLEPANISEVNIDSVSQANNHQIQELESNVDDLLHQLQLLKEENNRKSMQISEMGKKISDLEVEKTAYRETLTNLNQELARLTNEEQSHRTEIFTLNASFKKQLNDIISQDNEKIEKLTGDYDDVSKSRERLQMDLDESNKKHEQEVNLLKADIERLGKQIVTSEKSYAETNSSSMEKGEKFETIPLAEDPGRENQISAYTQTLQDRIFDIISTNIFILENIGLLLTFDNNNNIQIRRVKGLKKGTAQSNILDESTQMLDAHDNSLIKSPVFQKLKDEYELIKSVANGSEKDTQQSIFLGNITQLYDNKLYEVAVIRRFKDIETLAKKLTKENKIKRTLLERFQREKVTLRNFQIGDLALFLPTRENVNSVGSMSSSTSSLSSSFSSVDLSTPPPLDAMSIQSSPSVIHSNVINQASISGRDKNKLMRPWAAFTAFEESTRYFLKDEKGLTKGKEWFVGRIVTLEHFVADSPSNNPFRLPKGSVWFQVTAVVVSYQGV"

# From publication PMC13263796
